# Experimental data reported in PMC11995724, “Antibiotic target discovery by integrated phenotypic and activity-based profiling of electrophilic fragments” (Cell chemical biology, 2025).
# About 75 (2%) of roughly 3,200 compounds showed an effect of 50% or more. The list shows a part of the results.
# System: T1, S. aureus MSSA476
# T1 construct: MSSA476
# Set-up: species or system S. aureus MSSA476 (TSB) or V. cholerae SAD30 (LB); 384-well bacterial growth screen at 25 uM, OD600 relative to DMSO control
# Settings: relative growth, OD600, TSB; 25 µM; inhibitor
row,SMILES,% of control remaining
1,"Cc1ccccc1-n1c(C)cc(C(=O)CCl)c1C [10-H20, 2-chloro-1-[2,5-dimethyl-1-(2-methylphenyl)-1H-pyrrol-3-yl]ethan-1-one]",118.75%
2,"Cc1ccccc1NC(=O)C(C#N)=Cc1cc(C)n(CC(C)C)c1C [8-D19, 2-cyano-3-[2,5-dimethyl-1-(2-methylpropyl)-1H-pyrrol-3-yl]-N-(2-methylphenyl)prop-2-enamide]",139.419%
3,"C#CCOc1ccccc1C=C(C#N)C(=O)Nc1ccccc1F [9-C10, 2-cyano-N-(2-fluorophenyl)-3-[2-(prop-2-yn-1-yloxy)phenyl]prop-2-enamide]",123.446%
4,"CCCCNC(=O)C(C#N)=Cc1ccsc1 [9-B13, N-butyl-2-cyano-3-(thiophen-3-yl)prop-2-enamide]",96.4794%
5,"CC(C)NC(=O)C(C#N)=Cc1ccc(-c2ccc([N+](=O)[O-])cc2)s1 [9-B16, 2-cyano-3-[5-(4-nitrophenyl)thiophen-2-yl]-N-(propan-2-yl)prop-2-enamide]",110.262%
6,"C=CC(=O)N1CCC(C(=O)NCC(C)c2ncc(C)s2)CC1 (stereo not drawn) [3-P10, N-[2-(5-methyl-1,3-thiazol-2-yl)propyl]-1-(prop-2-enoyl)piperidine-4-carboxamide]",114.236%
7,"N#CC(=Cc1ccc(N2CCCCC2)cc1)C(=O)NC1CC1 [8-O04, 2-cyano-N-cyclopropyl-3-[4-(piperidin-1-yl)phenyl]prop-2-enamide]",115.851%
8,"CCCCNC(=O)C(C#N)=Cc1ccc(Cl)cc1 [9-H13, N-butyl-3-(4-chlorophenyl)-2-cyanoprop-2-enamide]",88.9888%
9,"COc1ccc(C=C(C#N)C(=O)Nc2ccccc2C)cc1 [8-P07, 2-cyano-3-(4-methoxyphenyl)-N-(2-methylphenyl)prop-2-enamide]",133.112%
10,"CC(Cl)C(=O)NCC(=O)Nc1ccc2c[nH]nc2c1 (stereo not drawn) [7-N11, 2-chloro-N-{[(2H-indazol-6-yl)carbamoyl]methyl}propanamide]",91.3658%
11,"O=C(CCl)Cc1c(Cl)cccc1Cl [10-K15, 1-chloro-3-(2,6-dichlorophenyl)propan-2-one]",99.0625%
12,"CC(Cl)C(=O)Nc1ccc(S(N)(=O)=O)cc1 (stereo not drawn) [6-B06, 2-chloro-N-(4-sulfamoylphenyl)propanamide]",82.2927%
13,"CC(Cl)C(=O)N1CCCC(c2nc(-c3cccc(F)c3)no2)C1 (stereo not drawn) [6-N21, 2-chloro-1-{3-[3-(3-fluorophenyl)-1,2,4-oxadiazol-5-yl]piperidin-1-yl}propan-1-one]",81.2683%
14,"Cc1cccc(C=C(C#N)C(=O)Nc2ccc(F)cc2)c1 [9-I19, 2-cyano-N-(4-fluorophenyl)-3-(3-methylphenyl)prop-2-enamide]",85.0936%
15,"N#Cc1ccccc1N1C(=O)C=CC1=O [10-B13, 2-(2,5-dioxo-2,5-dihydro-1H-pyrrol-1-yl)benzonitrile]",122.188%
16,"CN(CCOc1ccc(Cl)cc1)C(=O)CCl [5-D16, 2-chloro-N-[2-(4-chlorophenoxy)ethyl]-N-methylacetamide]",95.082%
17,"CCOC(=O)C(C#N)=Cc1ccc(N2C(=O)C=CC2=O)cc1 [10-N11, ethyl 2-cyano-3-[4-(2,5-dioxo-2,5-dihydro-1H-pyrrol-1-yl)phenyl]prop-2-enoate]",133.125%
18,"C=CC(=O)N1CCC(C(=O)NCC(O)c2cccc(Cl)c2)CC1 (stereo not drawn) [3-M06, N-[2-(3-chlorophenyl)-2-hydroxyethyl]-1-(prop-2-enoyl)piperidine-4-carboxamide]",103.091%
19,"O=C(CCl)N1CCC(Cc2nc(-c3ccc(F)cn3)no2)CC1 [5-K18, 2-chloro-1-(4-{[3-(5-fluoropyridin-2-yl)-1,2,4-oxadiazol-5-yl]methyl}piperidin-1-yl)ethan-1-one]",104.189%
20,"CC(=O)N(c1ccc(C)c(C)c1)c1nc(C=C(C#N)C(N)=O)cs1 [8-M16, 2-cyano-3-{2-[N-(3,4-dimethylphenyl)acetamido]-1,3-thiazol-4-yl}prop-2-enamide]",107.552%
21,"C=CC(=O)NC(C)Cn1cncn1 (stereo not drawn) [3-C11, N-[1-(1H-1,2,4-triazol-1-yl)propan-2-yl]prop-2-enamide]",100.305%
22,"CC(Cl)C(=O)NCCc1c[nH]c2ncccc12 (stereo not drawn) [7-C12, 2-chloro-N-(2-{1H-pyrrolo[2,3-b]pyridin-3-yl}ethyl)propanamide]",105.808%
23,"C=CC(=O)Nc1onc(C2CCCCC2)c1CC(C)C [1-P12, N-[3-cyclohexyl-4-(2-methylpropyl)-1,2-oxazol-5-yl]prop-2-enamide]",92.1319%

row,SMILES,% of control remaining
1,"C=CC(=O)N1CCOCC1c1cc(F)cc(F)c1 (stereo not drawn) [2-O16, 1-[3-(3,5-difluorophenyl)morpholin-4-yl]prop-2-en-1-one]",111.401%
2,"C=CC(=O)Nc1cccc(N2CCOCC2)c1 [1-K04, N-[3-(morpholin-4-yl)phenyl]prop-2-enamide]",107.956%
3,"COc1ccccc1NC(=O)C(C#N)=Cc1ccc(C)s1 [8-B15, 2-cyano-N-(2-methoxyphenyl)-3-(5-methylthiophen-2-yl)prop-2-enamide]",118.838%
4,"N#Cc1cccc(NC2CCN(C(=O)CCl)C2)c1 (stereo not drawn) [5-I22, 3-{[1-(2-chloroacetyl)pyrrolidin-3-yl]amino}benzonitrile]",95.4463%
5,"C=CC(=O)NCC1SCCS1 [1-C03, N-[(1,3-dithiolan-2-yl)methyl]prop-2-enamide]",101.978%
6,"CC(=O)N(c1ccccc1)c1nc(C=C(C#N)C(=O)NC2CC2)cs1 [9-A12, 2-cyano-N-cyclopropyl-3-[2-(N-phenylacetamido)-1,3-thiazol-4-yl]prop-2-enamide]",100.075%
7,"Cc1cccc(N2C(=O)C=CC2=O)c1C [10-H05, 1-(2,3-dimethylphenyl)-2,5-dihydro-1H-pyrrole-2,5-dione]",119.375%
8,"O=C(CCl)NC(c1ccccc1)c1nccs1 (stereo not drawn) [5-M13, 2-chloro-N-[phenyl(1,3-thiazol-2-yl)methyl]acetamide]",105.282%
9,"CC(Cl)C(=O)N1Cc2ccccc2N(C)C[C@@H]1C (stereo partly drawn) [5-F15, 2-chloro-1-[(3S)-1,3-dimethyl-2,3,4,5-tetrahydro-1H-1,4-benzodiazepin-4-yl]propan-1-one]",110.018%
10,"C=CC(=O)N(Cc1ccc(Cl)cc1Cl)CC1CCC(O)C1 (stereo not drawn) [1-B04, N-[(2,4-dichlorophenyl)methyl]-N-[(3-hydroxycyclopentyl)methyl]prop-2-enamide]",92.8352%
11,"N#CC(=Cc1ccc(-c2ccc(Cl)cc2)o1)C(=O)Nc1ccccc1 [8-O03, 3-[5-(4-chlorophenyl)furan-2-yl]-2-cyano-N-phenylprop-2-enamide]",118.174%
12,"C=CC(=O)NC[C@H]1CCCN1S(C)(=O)=O [1-H07, N-{[(2R)-1-methanesulfonylpyrrolidin-2-yl]methyl}prop-2-enamide]",112.176%
13,"Cc1ccc(SCCNC(=O)CCl)cc1 [4-K21, 2-chloro-N-{2-[(4-methylphenyl)sulfanyl]ethyl}acetamide]",162.744%
14,"C=CC(=O)N1CCC(C(=O)Nc2cnn(COC)c2)CC1 [2-H10, N-[1-(methoxymethyl)-1H-pyrazol-4-yl]-1-(prop-2-enoyl)piperidine-4-carboxamide]",87.7285%
15,"CC(Cl)C(=O)Nc1cc(Cl)cc(Cl)c1 (stereo not drawn) [4-D17, 2-chloro-N-(3,5-dichlorophenyl)propanamide]",118.914%
16,"C=CC(=O)N1CCC(C(=O)N(C)Cc2ccc([S+](C)[O-])cc2)CC1 (stereo not drawn) [2-D06, N-[(4-methanesulfinylphenyl)methyl]-N-methyl-1-(prop-2-enoyl)piperidine-4-carboxamide]",73.4552%
17,"CC(NC(=O)CCl)c1nc2c(s1)CCCCC2 (stereo not drawn) [7-M22, 2-chloro-N-(1-{4H,5H,6H,7H,8H-cyclohepta[d][1,3]thiazol-2-yl}ethyl)acetamide]",93.8776%
18,"Cc1cc(CNC(=O)C(C#N)=Cc2ccco2)ccc1N(C)C [9-N09, 2-cyano-N-{[4-(dimethylamino)-3-methylphenyl]methyl}-3-(furan-2-yl)prop-2-enamide]",94.9813%
19,"C=CC(=O)N1CCC(Cc2nccs2)C1 (stereo not drawn) [3-O16, 1-{3-[(1,3-thiazol-2-yl)methyl]pyrrolidin-1-yl}prop-2-en-1-one]",74.532%
20,"N#CC(=Cc1ccc2c(c1)OCO2)C(=O)NCc1ccccc1 [8-A09, 3-(1,3-dioxaindan-5-yl)-N-benzyl-2-cyanoprop-2-enamide]",113.527%
21,"C=CCNC(=O)C(C#N)=Cc1cccc2ccccc12 [9-L10, 2-cyano-3-(naphthalen-1-yl)-N-(prop-2-en-1-yl)prop-2-enamide]",84.794%
22,"CCCc1ccc(C(=O)CCl)cc1 [10-C04, 2-chloro-1-(4-propylphenyl)ethan-1-one]",134.375%
